From PubChem BioAssay AID504339 (National Center for Advancing Translational Sciences (NCATS), 2011)
Hit rate of the full screen: of about 390,000 compounds, about 17,000 (4.4%) were called active. Inconclusive means that the source gave no clear call. Such entries were picked first, then a sample of the others. Calls come from the whole dose curve; as a rule, active = well fitted inhibition curve with a large enough effect; inconclusive = small, poorly fitted or top-dose-only effect; inactive = no such curve, though single readings can be large or run the other way. A potency beside an inconclusive call is a rough fit, not a confirmed value.

Biological target: Lysine-specific demethylase 4A (Homo sapiens) (UniProt O75164)
Sequence of UniProt O75164 (O75164 whole entry, looked up, the tested form may be a part): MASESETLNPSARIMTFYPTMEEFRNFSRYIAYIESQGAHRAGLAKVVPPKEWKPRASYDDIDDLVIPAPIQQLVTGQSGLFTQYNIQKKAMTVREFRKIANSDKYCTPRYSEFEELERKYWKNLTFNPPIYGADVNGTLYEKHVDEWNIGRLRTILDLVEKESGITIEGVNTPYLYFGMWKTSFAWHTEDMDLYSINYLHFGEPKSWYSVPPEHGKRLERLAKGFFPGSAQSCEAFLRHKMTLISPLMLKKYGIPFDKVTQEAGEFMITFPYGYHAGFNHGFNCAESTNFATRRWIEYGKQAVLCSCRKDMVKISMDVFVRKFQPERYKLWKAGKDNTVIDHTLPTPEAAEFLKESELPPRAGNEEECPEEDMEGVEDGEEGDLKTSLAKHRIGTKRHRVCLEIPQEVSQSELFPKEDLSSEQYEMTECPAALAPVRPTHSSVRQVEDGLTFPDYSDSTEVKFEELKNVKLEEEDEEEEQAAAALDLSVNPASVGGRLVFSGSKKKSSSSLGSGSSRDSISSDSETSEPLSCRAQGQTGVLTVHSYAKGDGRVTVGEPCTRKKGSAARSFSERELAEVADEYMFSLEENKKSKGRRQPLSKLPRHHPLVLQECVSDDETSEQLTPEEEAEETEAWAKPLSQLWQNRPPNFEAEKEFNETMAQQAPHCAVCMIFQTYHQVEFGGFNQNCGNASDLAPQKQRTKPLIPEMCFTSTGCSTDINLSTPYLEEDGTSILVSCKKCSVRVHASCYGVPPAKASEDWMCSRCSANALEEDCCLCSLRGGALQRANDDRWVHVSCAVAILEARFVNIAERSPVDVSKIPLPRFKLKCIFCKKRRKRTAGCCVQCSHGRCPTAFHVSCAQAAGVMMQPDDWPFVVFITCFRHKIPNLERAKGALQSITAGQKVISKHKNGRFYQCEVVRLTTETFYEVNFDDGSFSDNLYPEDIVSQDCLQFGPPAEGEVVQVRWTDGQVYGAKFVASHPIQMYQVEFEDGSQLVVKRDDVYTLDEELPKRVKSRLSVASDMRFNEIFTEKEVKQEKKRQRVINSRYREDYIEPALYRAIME
Assay: qHTS Assay for Inhibitors of JMJD2A-Tudor Domain; note: nearly all actives have a fitted effect of over 50% in size
Details: AlphaScreen JMJD2A-Tudor / H3K4me3 peptide binding; series mostly up to 114 µM
Potency is the fitted concentration of half-maximal effect; tags give direction and shape of the fitted curve.

Row | Compound | Potency
1 | N#Cc1ccc(-c2ccccc2)nc1SCC(=O)c1cc2ccccc2oc1=O | inconclusive: 63.1 µM [inhibitor, partial curve, poor fit]
2 | CC1C/C(=N/NC(=O)c2cccs2)CC(C)(C)C1 (stereo not drawn) | inconclusive: 5.01 µM [inhibitor, full curve, poor fit]
3 | CN(CCC#N)C(=O)COC(=O)c1c2c(nc3ccccc13)/C(=C/c1ccco1)CC2 | active: 89.1 µM
4 | COc1ccc(NC2=CC(=O)CC(c3ccc(C)cc3)C2)c(OC)c1 (stereo not drawn) | active: 79.4 µM
5 | O=C(CSc1nc(-c2ccccc2)c(-c2ccccc2)[nH]1)Nc1nccs1 | inconclusive: 44.7 µM [inhibitor, partial curve]
6 | COc1ccc(Cn2nnnc2C(c2ccc(N(C)C)cc2)N2CCC(C)CC2)cc1 (stereo not drawn) | active: 44.7 µM
7 | CCn1c(O)c(N=NC(=O)c2ccc(CSc3nncn3C)cc2)c2ccccc21 | inconclusive: 79.4 µM [inhibitor, partial curve, poor fit]
8 | Cc1ccc(C)c(N2CCN(C(=O)C3CCCN(S(=O)(=O)c4cccc5nonc45)C3)CC2)c1 (stereo not drawn) | inconclusive: 31.6 µM [inhibitor, partial curve]
9 | CCc1ccc(O)c(N=Cc2cccc(C)c2O)c1 | inconclusive: 63.1 µM [inhibitor, partial curve, poor fit]
10 | O=S(=O)(NCC(c1ccccc1)N1CCC(O)CC1)c1ccc(Cl)cc1 (stereo not drawn) | inconclusive: 15.8 µM [inhibitor, full curve]
11 | Cc1ccc(Cn2c(CN3CCC(C(=O)NCC(C)c4ccccc4)CC3)cc3ccccc32)cc1 (stereo not drawn) | inactive
12 | Cc1ccc(NC(=O)Cn2ncc3c4ccccc4n(Cc4ccccc4)c3c2=O)cc1Cl | inactive
13 | CCN1CCN(c2ccc(S(=O)(=O)N3CCCCC3)cc2NC(=O)COc2ccc(F)cc2Cl)CC1 | inconclusive: 14.1 µM [inhibitor, full curve, poor fit]
14 | Cc1ccc(/C=C/C(=O)Nc2ccc(N(C)C)cc2)o1 | active: 50.1 µM
15 | CCOc1ccc(/C=N/Nc2nc(C)cs2)c(O)c1 | inconclusive: 56.2 µM [inhibitor, partial curve, poor fit]
16 | O=C(Nc1nc(-c2ccccn2)cs1)c1cccc(S(=O)(=O)N2CCOCC2)c1 | active: 50.1 µM
17 | CCC1=NN2C(=N)/C(=C\c3ccc(SCc4ccco4)o3)C(=O)N=C2S1 | inconclusive: 35.5 µM [inhibitor, partial curve]
18 | CCOc1cc(C(=S)N2CCC(O)CC2)ccc1OS(=O)(=O)c1ccc(Br)cc1 | inconclusive: 56.2 µM [inhibitor, partial curve, poor fit]
19 | O=C(CNS(=O)(=O)c1ccccc1)OCC(=O)c1ccccc1Cl | inactive
20 | CNC(=O)c1sccc1-n1cccc1 | inconclusive: 89.1 µM [inhibitor, single point]
21 | Cc1ccc(NC(=O)c2cc(=O)n(Cc3ccccc3)c(=O)[nH]2)cc1C | active: 10 µM
22 | CC[C@H](C)[C@H](NC(=O)OCc1ccccc1)C(=O)OCC(=O)N1CCN(c2ccc(OC)cc2)CC1 | inconclusive: 50.1 µM [inhibitor, partial curve]
23 | S=C(NCc1ccc(Cl)cc1)Nc1ccccc1Cl | inactive

Row | Compound | Potency
24 | CCC(=O)OCCNc1cc(Sc2nc3ccccc3[nH]2)c2nonc2c1[N+](=O)[O-] | active: 79.4 µM
25 | CC(C)=CCC/C(C)=C/Cc1c(O)ccc(C(=O)/C=C/c2ccc(O)cc2)c1O | inconclusive: 39.8 µM [inhibitor, partial curve]
26 | Nc1c(Cl)cc(C2=NCCn3c2c2ccc([N+](=O)[O-])cc2[n+]3[O-])cc1Cl | inconclusive: 3.55 µM [inhibitor, full curve, poor fit]
27 | COc1ccccc1NS(=O)(=O)c1cc(NC(=O)c2ccc(NC(C)=O)cc2)ccc1N1CCOCC1 | inconclusive: 63.1 µM [inhibitor, partial curve, poor fit]
28 | COC(=O)c1cc2c(C)cc3ccc(C)cn3c-2c1C(=O)OC | inconclusive: 50.1 µM [inhibitor, partial curve]
29 | CC(=O)c1sc(NC(=O)C2CC(=O)N(Cc3ccco3)C2)nc1-c1ccccc1 (stereo not drawn) | inconclusive: 31.6 µM [inhibitor, full curve]
30 | CCN1CCN(C(c2cccnc2)c2cc(Cl)c3cccnc3c2O)CC1 (stereo not drawn) | active: 17.8 µM
31 | CCn1c(/C(C#N)=N/O)nc2ccccc21 | inconclusive: 28.2 µM [inhibitor, single point]
32 | CCN(CC)S(=O)(=O)c1ccc(NC(=O)CN(c2ccc(OC)cc2OC)S(C)(=O)=O)cc1 | inconclusive: 89.1 µM [inhibitor, single point]
33 | CCOc1c(Br)cc(Br)cc1/C=C1\SC(N)=NC1=O | active: 25.1 µM
34 | Cc1ccc(NC(C)C(=O)N/N=C/c2c[nH]c3ccccc23)cc1 (stereo not drawn) | inconclusive: 56.2 µM [inhibitor, partial curve]
35 | CCOC(=O)C1CCCN(C(=O)c2ccc3[nH]c4c(c3c2)CC(C)CC4)C1 (stereo not drawn) | inconclusive: 56.2 µM [inhibitor, partial curve]
36 | COc1ccc(-n2c(CCc3ccccc3)n[nH]c2=S)cc1 | active: 11.2 µM
37 | O=C(c1cccs1)N1CCN(Cc2ccccc2[N+](=O)[O-])CC1 | inconclusive: 1.58 µM [inhibitor, full curve, poor fit]
38 | N#Cc1c(NC(=O)CN2CCOCC2)oc(-c2ccccc2)c1-c1ccccc1 | inconclusive: 79.4 µM [inhibitor, partial curve]
39 | Cc1csc(NC(=O)CSc2nnc(-c3ccoc3C)n2CCc2ccccc2)n1 | inconclusive: 89.1 µM [inhibitor, single point]
40 | CN1C(=O)C(CC(=O)NC2CCCCC2)SC1=Nc1ccccc1 (stereo not drawn) | inconclusive: 14.1 µM [inhibitor, partial curve, poor fit]
41 | CCOC(=O)c1csc(N/N=C2\CCc3ccccc32)n1 | inconclusive: 50.1 µM [inhibitor, partial curve]
42 | O=C(Nc1ccc(N2CCCCC2)c(Cl)c1)c1ccc(N2CCOCC2)c([N+](=O)[O-])c1 | inconclusive: 14.1 µM [inhibitor, full curve]
43 | CCOCCCn1c(=S)[nH]c2ncccc2c1=O | active: 22.4 µM
44 | COc1ccc(C(=O)c2sc(Nc3ccccc3)nc2N)cc1OC | inconclusive: 20 µM [inhibitor, full curve]
45 | O=C(NCc1n[nH]c(=S)n1-c1ccc(F)cc1)c1ccc(S(=O)(=O)N2CCOCC2)cc1 | active: 12.6 µM
46 | O=C(CC1CCCC1)Nc1cc(S(=O)(=O)N2CCOCC2)ccc1O | inactive

Row | Compound | Potency
47 | c1cncc(CNc2ccc3c(c2)OCO3)c1 | inconclusive: 50.1 µM [inhibitor, partial curve, poor fit]
48 | NS(=O)(=O)c1cccc(NC(=O)COC(=O)c2cc(-c3ccc(Cl)cc3)nc3ccccc23)c1 | inactive
49 | CCOC(=O)c1cc(S(=O)(=O)N2CCN(c3cc(Cl)ccc3C)CC2)[nH]n1 | inconclusive: 63.1 µM [inhibitor, partial curve, poor fit]
50 | Cc1ccc(C)c(C(C)NC(=S)NC2CCCCC2)c1 (stereo not drawn) | inactive
51 | Cc1ccc(C(=O)COC(=O)CCN2C(=O)C3C4CCC(C4)C3C2=O)cc1[N+](=O)[O-] (stereo not drawn) | inactive
52 | O=C1/C(=C/c2cccs2)CCC/C1=C\c1cccs1 | inconclusive: 15.8 µM [inhibitor, full curve]
53 | COc1ccc(C(=O)Nc2nc3nc(C)c(Cl)c(=O)n3[nH]2)cc1 | inactive
54 | CC(C)NC(=S)N/N=C/c1cc(Br)ccc1O | active: 50.1 µM
55 | COc1ccc2c(c1)C(=C(C#N)C#N)C(=O)N2CCc1ccccc1 | inconclusive: 44.7 µM [inhibitor, partial curve, poor fit]
56 | COc1ccc(CCNC(=O)C/C(C)=N/NC(=O)COc2ccc(C)cc2Br)cc1OC | inactive
57 | CC(=O)C1=C(O)C(=O)N(C)C1c1ccccc1[N+](=O)[O-] (stereo not drawn) | inconclusive: 79.4 µM [inhibitor, partial curve]
58 | O=C(c1cccs1)n1cc(C(=S)N2CCOCC2)c2ccccc21 | inconclusive: 25.1 µM [inhibitor, partial curve]
59 | COc1ccc(-c2cc([C@H]3[C@@H]4C=CCC[C@@]4(C)C(=O)N3Cc3ccccc3)ccc2F)cc1OC | inactive
60 | Nc1nc(SCC(=O)c2ccc(Cl)cc2)c2ncn(C3OC(CO)C(O)C3O)c2n1 (stereo not drawn) | inconclusive: 35.5 µM [inhibitor, partial curve]
61 | CCOc1ccccc1NC(=O)C(=O)N/N=C/c1cc(Br)ccc1O | inconclusive: 11.2 µM [inhibitor, partial curve]
62 | CC(C#N)N1CCN(S(=O)(=O)c2ccc3c(c2)CCC3)CC1 (stereo not drawn) | inactive
63 | Cc1c(C)n(Cc2ccc(F)cc2)c2ccc(C(=O)NCCCN3CCOCC3)cc12 | active: 44.7 µM
64 | CCOc1ccc2c(O)csc2c1 | inconclusive: 79.4 µM [inhibitor, partial curve]
65 | COc1ccccc1NS(=O)(=O)c1cc(NC(=O)C2CCC2)ccc1N1CCCCC1 | inconclusive: 35.5 µM [inhibitor, full curve]
66 | Cc1ccc[n+](CC(=O)Nc2cc(C(F)(F)F)ccc2N2CCOCC2)c1 | inconclusive: 28.2 µM [inhibitor, single point]
67 | Cc1ccc2nc(-c3ccc(NC(=O)CN4C(=O)c5ccccc5C4=O)cc3)sc2c1 | inactive
68 | COc1ccccc1NC(=O)c1cc([N+](=O)[O-])ccc1NCCN1C(=O)CCC1=O | inactive
